# Some of the results follow.
# B1: FimD (Bordetella pertussis) (protein)
# chain: MPARVISFCGAALAVWAGLAVQPAMAVDPPVDCGRALGLHFWSSASLISDQTPDGTLIGKPVVGRSLLSKSCKVPDDIKEDLSDNHDGEPVDIVLELGSNYKIRPQSYGHPGIVVDLPFGSTEETGIAIYIDFGSSPMQKVGERQWLYPQKGEVLFDVLTINGDNAEVRYQAIKVGPLKRPRKLVLSQFPNLFTYKWVFMRGTSQERVLAQGTIDTDVATSTIDLKTCRYTSQTVSLPIIQRSALTGVGTTLGMTDFQMPFWCYGWPKVSVYMSATKTQTGVDGVALPATGQAAGMASGVGVQLINGKTQQPVKLGLQGKIALPEAQQTESATFSLPMKAQYYQTSTSTSAGKLSVTYAVTLNYD
# What was measured:
# Test in all cases: glycan array binding signal (z-score within array); higher = stronger binding
# Conditions in all cases: glycan notation: IUPAC condensed, linker removed
# Gal(b1-4)Glc = target: Gal(b1-4)Glc
# How it was run: (§1)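 The Consortium for Functional Glycomics database supplied 3228 glycan arrays, of which those lacking an available protein sequence were dropped. The binding signal, a within-array Z-score, was averaged across arrays of the same protein sequence and across linkers. Negative scores can be read as non-binding.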
# Gal(b1-4)Glc6S = target: Gal(b1-4)Glc6S
# How it was run: as §1
# Gal(b1-4)GlcNAc = target: Gal(b1-4)GlcNAc
# How it was run: as §1
# [1] = target: Gal(b1-4)GlcNAc(a1-6)Gal(b1-4)GlcNAc
# How it was run: as §1
# Gal(b1-4)GlcNAc(b1-2)Man = target: Gal(b1-4)GlcNAc(b1-2)Man
# How it was run: as §1
# [2] = target: Gal(b1-4)GlcNAc(b1-2)Man(a1-3)Man(b1-4)GlcNAc(b1-4)GlcNAc
# How it was run: as §1
# [3] = target: Gal(b1-4)GlcNAc(b1-2)Man(a1-3)[Gal(b1-4)GlcNAc(b1-2)Man(a1-6)]Man(b1-4)GlcNAc(b1-4)GlcNAc
# How it was run: as §1
# [4] = target: Gal(b1-4)GlcNAc(b1-2)Man(a1-3)[Gal(b1-4)GlcNAc(b1-2)Man(a1-6)]Man(b1-4)GlcNAc(b1-4)[Fuc(a1-6)]GlcNAc
# How it was run: as §1
# [5] = target: Gal(b1-4)GlcNAc(b1-2)Man(a1-3)[Gal(b1-4)GlcNAc(b1-2)Man(a1-6)][Gal(b1-4)GlcNAc(b1-4)]Man(b1-4)GlcNAc(b1-4)[Fuc(a1-6)]GlcNAc
# How it was run: as §1
# [6] = target: Gal(b1-4)GlcNAc(b1-2)Man(a1-3)[Gal(b1-4)GlcNAc(b1-2)Man(a1-6)][GlcNAc(b1-4)]Man(b1-4)GlcNAc(b1-4)[Fuc(a1-6)]GlcNAc
# How it was run: as §1
# [7] = target: Gal(b1-4)GlcNAc(b1-2)Man(a1-3)[GlcNAc(b1-2)Man(a1-6)]Man(b1-4)GlcNAc(b1-4)GlcNAc
# How it was run: as §1
# [8] = target: Gal(b1-4)GlcNAc(b1-2)Man(a1-3)[GlcNAc(b1-4)][Gal(b1-4)GlcNAc(b1-2)Man(a1-6)]Man(b1-4)GlcNAc(b1-4)GlcNAc
# How it was run: as §1
# [9] = target: Gal(b1-4)GlcNAc(b1-2)Man(a1-3)[Man(a1-6)]Man(b1-4)GlcNAc(b1-4)GlcNAc
# How it was run: as §1
# [10] = target: Gal(b1-4)GlcNAc(b1-2)Man(a1-6)Man(b1-4)GlcNAc(b1-4)GlcNAc
# How it was run: as §1
# [11] = target: Gal(b1-4)GlcNAc(b1-2)Man(a1-6)[GlcNAc(b1-2)Man(a1-3)]Man(b1-4)GlcNAc(b1-4)GlcNAc
# How it was run: as §1
# [12] = target: Gal(b1-4)GlcNAc(b1-2)Man(a1-6)[Man(a1-3)]Man(b1-4)GlcNAc(b1-4)GlcNAc
# How it was run: as §1
# [13] = target: Gal(b1-4)GlcNAc(b1-2)[Gal(b1-4)GlcNAc(b1-4)]Man(a1-3)[Gal(b1-4)GlcNAc(b1-2)Man(a1-6)]Man(b1-4)GlcNAc(b1-4)GlcNAc
# How it was run: as §1
# [14] = target: Gal(b1-4)GlcNAc(b1-2)[Gal(b1-4)GlcNAc(b1-4)]Man(a1-3)[Gal(b1-4)GlcNAc(b1-2)[Gal(b1-4)GlcNAc(b1-6)]Man(a1-6)]Man(b1-4)GlcNAc(b1-4)GlcNAc
# How it was run: as §1
# [15] = target: Gal(b1-4)GlcNAc(b1-2)[Gal(b1-4)GlcNAc(b1-4)]Man(a1-3)[GlcNAc(b1-4)][Gal(b1-4)GlcNAc(b1-2)Man(a1-6)]Man(b1-4)GlcNAc(b1-4)GlcNAc
# How it was run: as §1
# [16] = target: Gal(b1-4)GlcNAc(b1-2)[Gal(b1-4)GlcNAc(b1-4)]Man(a1-3)[GlcNAc(b1-4)][Gal(b1-4)GlcNAc(b1-2)[Gal(b1-4)GlcNAc(b1-6)]Man(a1-6)]Man(b1-4)GlcNAc(b1-4)GlcNAc
# How it was run: as §1
# [17] = target: Gal(b1-4)GlcNAc(b1-2)[Gal(b1-4)GlcNAc(b1-6)]Man(a1-6)[Gal(b1-4)GlcNAc(b1-2)Man(a1-3)]Man(b1-4)GlcNAc(b1-4)GlcNAc
# How it was run: as §1
# [18] = target: Gal(b1-4)GlcNAc(b1-2)[Gal(b1-4)GlcNAc(b1-6)]Man(a1-6)[Gal(b1-4)GlcNAc(b1-2)Man(a1-3)]Man(b1-4)GlcNAc(b1-4)[Fuc(a1-6)]GlcNAc
# How it was run: as §1
# [19] = target: Gal(b1-4)GlcNAc(b1-2)[Gal(b1-4)GlcNAc(b1-6)]Man(a1-6)[GlcNAc(b1-4)][Gal(b1-4)GlcNAc(b1-2)Man(a1-3)]Man(b1-4)GlcNAc(b1-4)GlcNAc
# How it was run: as §1
# [20] = target: Gal(b1-4)GlcNAc(b1-2)[Gal(b1-4)GlcNAc(b1-6)]Man(a1-6)[GlcNAc(b1-4)][Gal(b1-4)GlcNAc(b1-2)[Gal(b1-4)GlcNAc(b1-4)]Man(a1-3)]Man(b1-4)GlcNAc(b1-4)[Fuc(a1-6)]GlcNAc
# How it was run: as §1
# [21] = target: Gal(b1-4)GlcNAc(b1-3)Gal(b1-3)GalNAc
# How it was run: as §1
# [22] = target: Gal(b1-4)GlcNAc(b1-3)Gal(b1-3)GlcNAc
# How it was run: as §1
# [23] = target: Gal(b1-4)GlcNAc(b1-3)Gal(b1-4)Glc
# How it was run: as §1
# [24] = target: Gal(b1-4)GlcNAc(b1-3)Gal(b1-4)GlcNAc
# How it was run: as §1
# [25] = target: Gal(b1-4)GlcNAc(b1-3)Gal(b1-4)GlcNAc(b1-2)Man(a1-3)[Gal(b1-4)GlcNAc(b1-3)Gal(b1-4)GlcNAc(b1-2)Man(a1-6)]Man(b1-4)GlcNAc(b1-4)GlcNAc
# How it was run: as §1
# [26] = target: Gal(b1-4)GlcNAc(b1-3)Gal(b1-4)GlcNAc(b1-2)Man(a1-3)[Gal(b1-4)GlcNAc(b1-3)Gal(b1-4)GlcNAc(b1-2)Man(a1-6)]Man(b1-4)GlcNAc(b1-4)[Fuc(a1-6)]GlcNAc
# How it was run: as §1
# [27] = target: Gal(b1-4)GlcNAc(b1-3)Gal(b1-4)GlcNAc(b1-2)[Gal(b1-4)GlcNAc(b1-3)Gal(b1-4)GlcNAc(b1-6)]Man(a1-6)[Gal(b1-4)GlcNAc(b1-3)Gal(b1-4)GlcNAc(b1-2)Man(a1-3)]Man(b1-4)GlcNAc(b1-4)GlcNAc
# How it was run: as §1
# [28] = target: Gal(b1-4)GlcNAc(b1-3)Gal(b1-4)GlcNAc(b1-2)[Gal(b1-4)GlcNAc(b1-3)Gal(b1-4)GlcNAc(b1-6)]Man(a1-6)[Gal(b1-4)GlcNAc(b1-3)Gal(b1-4)GlcNAc(b1-2)Man(a1-3)]Man(b1-4)GlcNAc(b1-4)[Fuc(a1-6)]GlcNAc
# How it was run: as §1
# [29] = target: Gal(b1-4)GlcNAc(b1-3)Gal(b1-4)GlcNAc(b1-3)Gal(b1-4)GlcNAc
# How it was run: as §1
# [30] = target: Gal(b1-4)GlcNAc(b1-3)Gal(b1-4)GlcNAc(b1-3)Gal(b1-4)GlcNAc(b1-2)Man(a1-3)[Gal(b1-4)GlcNAc(b1-3)Gal(b1-4)GlcNAc(b1-3)Gal(b1-4)GlcNAc(b1-2)Man(a1-6)]Man(b1-4)GlcNAc(b1-4)GlcNAc
# How it was run: as §1
# [31] = target: Gal(b1-4)GlcNAc(b1-3)Gal(b1-4)GlcNAc(b1-3)Gal(b1-4)GlcNAc(b1-2)Man(a1-3)[Gal(b1-4)GlcNAc(b1-3)Gal(b1-4)GlcNAc(b1-3)Gal(b1-4)GlcNAc(b1-2)Man(a1-6)]Man(b1-4)GlcNAc(b1-4)[Fuc(a1-6)]GlcNAc
# How it was run: as §1
# [32] = target: Gal(b1-4)GlcNAc(b1-3)Gal(b1-4)GlcNAc(b1-3)Gal(b1-4)GlcNAc(b1-2)[Gal(b1-4)GlcNAc(b1-3)Gal(b1-4)GlcNAc(b1-3)Gal(b1-4)GlcNAc(b1-6)]Man(a1-6)[Gal(b1-4)GlcNAc(b1-3)Gal(b1-4)GlcNAc(b1-3)Gal(b1-4)GlcNAc(b1-2)Man(a1-3)]Man(b1-4)GlcNAc(b1-4)[Fuc(a1-6)]GlcNAc
# How it was run: as §1
# [33] = target: Gal(b1-4)GlcNAc(b1-3)Gal(b1-4)GlcNAc(b1-3)Gal(b1-4)GlcNAc(b1-3)Gal(b1-4)GlcNAc(b1-2)Man(a1-3)[Gal(b1-4)GlcNAc(b1-3)Gal(b1-4)GlcNAc(b1-3)Gal(b1-4)GlcNAc(b1-3)Gal(b1-4)GlcNAc(b1-2)Man(a1-6)]Man(b1-4)GlcNAc(b1-4)GlcNAc
# How it was run: as §1
binder,measurement,setting,value
B1,glycan array binding signal (z-score),Gal(b1-4)Glc,-0.288
same,glycan array binding signal (z-score),Gal(b1-4)Glc6S,-0.15
same,glycan array binding signal (z-score),Gal(b1-4)GlcNAc,0.077
same,glycan array binding signal (z-score),[1],-0.231
same,glycan array binding signal (z-score),Gal(b1-4)GlcNAc(b1-2)Man,0.051
same,glycan array binding signal (z-score),[2],0.026
same,glycan array binding signal (z-score),[3],-0.361
same,glycan array binding signal (z-score),[4],0.268
same,glycan array binding signal (z-score),[5],0.272
same,glycan array binding signal (z-score),[6],-0.231
same,glycan array binding signal (z-score),[7],-0.145
same,glycan array binding signal (z-score),[8],-0.503
same,glycan array binding signal (z-score),[9],-0.107
same,glycan array binding signal (z-score),[10],-0.16
same,glycan array binding signal (z-score),[11],-0.022
same,glycan array binding signal (z-score),[12],-0.347
same,glycan array binding signal (z-score),[13],-0.318
same,glycan array binding signal (z-score),[14],-0.3
same,glycan array binding signal (z-score),[15],-0.22
same,glycan array binding signal (z-score),[16],-0.092
same,glycan array binding signal (z-score),[17],-0.132
same,glycan array binding signal (z-score),[18],0.892
same,glycan array binding signal (z-score),[19],-0.186
same,glycan array binding signal (z-score),[20],-0.601
same,glycan array binding signal (z-score),[21],-0.264
same,glycan array binding signal (z-score),[22],-0.392
same,glycan array binding signal (z-score),[23],-0.049
same,glycan array binding signal (z-score),[24],-0.535
same,glycan array binding signal (z-score),[25],0.708
same,glycan array binding signal (z-score),[26],-0.023
same,glycan array binding signal (z-score),[27],0.404
same,glycan array binding signal (z-score),[28],-0.124
same,glycan array binding signal (z-score),[29],-0.273
same,glycan array binding signal (z-score),[30],1.08
same,glycan array binding signal (z-score),[31],-0.033
same,glycan array binding signal (z-score),[32],1.14
same,glycan array binding signal (z-score),[33],0.51
